Laboratory results: ChEMBL document CHEMBL1201862, “PubChem BioAssay data set” (2004)

The molecules below were run on NCI-H322M (assay: NCI-60 cell line screen, 48 h).

| Structure (SMILES) | GI50 |
| --- | --- |
| CC[N+](CC)(CC)Cc1cc2ccccc2n1C(=O)OC | inactive: > 100 µM |
| Cc1ccc2c(c1)C=CC(C#N)N2C(=O)Oc1ccccc1 (configuration not stated) | inactive: 24.4 µM |
| CN(C)CCNC(=O)c1cc([N+](=O)[O-])cc2ccc(-c3ccccc3)nc12 | inactive: 5.18 µM |
| COC(=N)CCCl | inactive: > 100 µM |
| Clc1cc(Cl)c2ns[s+]c2c1Cl | inactive: > 100 µM |
| O=[N+]([O-])c1ccc(/N=N/c2c(O)ccc3cc(S(=O)(=O)O)ccc23)cc1 | inactive: > 100 µM |
| Oc1ccc(N=C2CCC(=C(c3ccccc3)c3ccc(Nc4ccc(O)cc4)cc3)CC2)cc1 | inactive: 61.7 µM |
| COc1ccc(-n2c(Cn3nnc(-c4cccnc4)n3)nn(C3OC(COC(=O)c4ccccc4)C(OC(=O)c4ccccc4)C3OC(=O)c3ccccc3)c2=S)cc1 (configuration not stated) | inactive: > 100 µM |
| CCOC(=O)c1c2ccc(/C=C/c3ccccc3)ccc-2c(C(=O)OCC)c1N | inactive: > 100 µM |
| CC(C)=C1CCC(CN2CCOCC2)C1=O (configuration not stated) | inactive: 33.4 µM |
| CC(C)CC(N)C(=O)NC(CNC(CCC(N)=O)C(=O)NC(CC(C)C)C(=O)NC(CC(C)C)C(=O)O)Cc1ccc2ccccc2c1 (configuration not stated) | inactive: > 10 µM |
| CCOC(=O)C1=C(C)NC(C)=C(C(=O)OCC)C1c1ccc(Cl)cc1 | inactive: 14.3 µM |
| CN1CC(=O)N(C)c2ncn(Cc3ccccc3)c2C1=O | inactive: > 100 µM |
| Nc1nc(N)c2nc(CNc3ccc(C(=O)NC(CCC(=O)O)C(=O)O)cc3F)cnc2n1 (configuration not stated) | inactive: > 100 µM |
| O=S1(=O)N=C(SCc2ccccc2)N(c2ccccc2)c2ccncc21 | inactive: 45.5 µM |
| O=C(Cc1ccccc1)N[C@@H]1COC(=O)[C@@H]2CCCN2C(=O)[C@@H]2CCCN2C1=O (HELM PEPTIDE1{[O=C(Cc1ccccc1)[*:2]].[O=C([C@@H](CO[*:3])N[*:1])[*:2]].P.P}$PEPTIDE1,PEPTIDE1,2:R3-4:R2$$$V2.0) | inactive: > 100 µM |
| CC(C)OC(=O)c1ccc(CCC2=CC(=O)C=CC2=O)cc1 | inactive: 35.2 µM |
| O=C(Nc1ccccc1)c1cc(S(=O)(=O)Nc2nc3cccnc3[nH]2)c(SSc2cc(Cl)c(C(=O)Nc3ccccc3)cc2S(=O)(=O)Nc2nc3cccnc3[nH]2)cc1Cl | inactive: > 100 µM |
| N=C(N)NCCCS(=O)(=O)Nc1ccc(Nc2c3ccccc3nc3cc([N+](=O)[O-])ccc23)cc1 | inactive: 10.5 µM |
| N[C@]1(C(=O)O)C[C@@H]2C(Br)=NO[C@@H]2C1 | inactive: > 100 µM |
| CC1CC(=O)C(CC(=O)O)[C@H]1C(C(=O)C(=O)Nc1cc(Cl)ccc1Cl)[N+](=O)[O-] (some centres not stated) | inactive: > 100 µM |
| COC(=O)C1=C(C)NC(C)=C(C(=O)OC)C1c1cccc(NO)c1 | inactive: > 100 µM |
| CCOC(=O)C1CSCCSC1 | inactive: > 100 µM |

| Structure (SMILES) | GI50 |
| --- | --- |
| N#Cc1c(-c2ccccc2)cn(C(=O)c2ccccc2)c1N | inactive: > 100 µM |
| O=S(=O)(N/N=C/c1c(Cl)cccc1Cl)c1ccccc1 | inactive: > 100 µM |
| COc1cc(C(c2cccc3ccccc23)N2C(=O)CCC2C(=O)O)cc(OC)c1OC (configuration not stated) | inactive: > 100 µM |
| Cc1cc2c(s1)C(=O)c1sccc1C2=O | inactive: 1.76 µM |
| COC(=O)Nc1nc2cc(Oc3ccc4nc(NC(=O)OC)[nH]c4c3)ccc2[nH]1 | inactive: 1.14 µM |
| O=C1CC(Br)c2c(Cl)sc(Cl)c21 (configuration not stated) | inactive: 15.3 µM |
| O=C1CCCc2cc3c(cc21)CC1(C3)Cc2ccc3c(c2C1)C(=O)CCC3 (configuration not stated) | inactive: 47.8 µM |
| C/C(=N\NC(=S)N1CCN(c2ccccn2)CC1)c1ccccn1 | active: 0.00398 µM |
| COc1ccccc1C1SCC(=O)N1c1ccc(-n2c(-c3ccccc3)nc3ccccc3c2=O)cc1 (configuration not stated) | inactive: 50.4 µM |
| O=S(=O)(O)c1cc(Cl)c(O)c2ncc(Cl)cc12 | inactive: 50.1 µM |
| O=NN(CCCl)C(=O)Nc1ccc(Cl)c(Cl)c1 | inactive: > 100 µM |
| CCOC(=O)[C@@]12C[C@](/C=C/OC)(O[Si](C)(C)C)[C@@]13c1cc(OC)c(OC)cc1CCN3C(=O)C2=O | inactive: > 100 µM |
| CN(C)CCS/C(=N\c1ccccc1)N1C=COC=C1 | inactive: 53.3 µM |
| CCOP(=O)(C/C(=N/NC(C)(C)C)C(=O)Nc1nc2ccc(C)cc2s1)OCC | inactive: > 100 µM |
| CC(=O)NC1=CC(=O)c2cc(C)cc(O)c2C1=O | inactive: 17.6 µM |
| CC1(C)CC(=O)C2=C(C1)S/C(=C1/SC3=C(S1)C(=O)CC(C)(C)C3)S2 | inactive: > 251 µM |
| COC(=O)CCC1=NCC(C)(C)O1 | inactive: > 10 µM |
| CC1(c2ccc(Cl)cc2)C=C(c2ccc(Cl)cc2)C(C#N)=C(C(C#N)C#N)N1.CNC (configuration not stated) | inactive: 16 µM |
| CN(C)c1ccc(C2SCC(=O)N2NS(=O)(=O)c2cccc(C(=O)O)c2)cc1 (configuration not stated) | inactive: 66.1 µM |
| COc1ccc(C2(CC(C)C)CCNC2)cc1OC (configuration not stated) | inactive: > 100 µM |
| O=c1ccn(COC(COCc2ccccc2)COCc2ccccc2)c(=O)[nH]1 | inactive: > 100 µM |
| N#CC1CCCCCCCCCCC(=O)N(CCCl)C1=O (configuration not stated) | inactive: > 100 µM |
| O=c1cc(NNc2cccc(Cl)c2)[nH]c(=O)[nH]1 | inactive: > 100 µM |

| Structure (SMILES) | GI50 |
| --- | --- |
| COc1ccc(C(=O)c2c(C(C(=O)c3ccc(OC)cc3)C(=O)c3ccc(OC)cc3)n(C(=O)c3ccc(OC)cc3)c3ccccc23)cc1 | inactive: > 100 µM |
| Cc1c(C(=O)O)oc2ccc([N+](=O)[O-])cc12 | inactive: > 100 µM |
| CC1(C)C2CCC3(C2)CS(=O)(=O)N2OC231 (configuration not stated) | inactive: > 100 µM |
| COc1ccc(N[C@H](C[S+]([O-])c2ccc(C)cc2)C(F)(F)F)cc1 (some centres not stated) | inactive: > 100 µM |
| CCCc1[nH]nc(C(N)=O)c1/N=N/N(C)C | inactive: > 100 µM |
| COc1c2c(c(OC)c3c1c(=O)c1ccccc1n3C)OCO2 | inactive: 14.1 µM |
| CC(CC(N)C(=O)O)C(=O)O (configuration not stated) | inactive: > 100 µM |
| COC(=O)C1=CC(=O)C(C(=O)Nc2ccc(OC)cc2)C(c2ccccc2)O1 (configuration not stated) | inactive: 44.2 µM |
| Cc1cc(N)c2ccccc2[n+]1CCCCCCCCCCNc1cc(C)[n+](CCCCCCCCCC[n+]2c(C)cc(N)c3ccccc32)c2ccccc12 | inactive: 1.98 µM |
| C1CSCCCSCCCSCCCSCCCSC1 | inactive: 44.3 µM |
| Clc1ccc(Cl)c2[s+]snc12 | inactive: > 100 µM |
| OCCN(C1=NCCN1)/[N+](=C/c1ccc(Cl)cc1)[CH-]c1ccc(Cl)cc1 | inactive: > 100 µM |
| CC(C)(C)/N=N/C(C)(C)N=C=O | inactive: > 100 µM |
| COC1C(O)CC(OC2CC(Oc3cc4cc5c(c(O)c4c(O)c3C)C(=O)[C@@H](OC3CC(OC4CC(OC6CC(C)(O)C(OC(C)=O)C(C)O6)C(O)C(C)O4)C(O)C(C)O3)[C@H]([C@H](OC)C(=O)[C@@H](O)[C@@H](C)O)C5)OC(C)C2OC(C)=O)OC1C (some centres not stated) [CHROMOMYCIN] | active: 0.00365 µM |
| COC(=O)[C@]1(C)CCC[C@@]2(C)C1CC[C@]13C=C(C(C)C)[C@H](CC21)CC3(Cl)C#N (some centres not stated) | inactive: > 100 µM |
| CCOC(=O)[C@H](CCCNC(=O)OC(C)(C)C)NCc1ccc(OC)c(OC)c1 | inactive: > 100 µM |
| COc1ccc(N2C=Nn3c(nc4sc(C)c(C)c4c3=O)C2)cc1 | inactive: > 100 µM |
| COC(=O)Cc1ccc2c(c1)Sc1ccc(CC(=O)OC)cc1N2C | inactive: 38.5 µM |
| N=c1sc(N2CCOCC2)nn1CC(=O)c1ccccc1 | inactive: > 100 µM |
| Nc1ccn(C2CC3OCC3O2)c(=O)n1 (configuration not stated) | inactive: 96.6 µM |
| COc1cc(C2SC(=N)Nc3c2c(C)nn3C(=O)c2ccccc2O)cc(OC)c1OC (configuration not stated) | inactive: > 10 µM |
| CC1=C(c2ccccc2)CON(c2ccccc2)C1 | inactive: 43.6 µM |
| O=C(C=P(c1ccccc1)(c1ccccc1)c1ccccc1)C12CC3CC(CC(C3)C1)C2 | inactive: 15.5 µM |

| Structure (SMILES) | GI50 |
| --- | --- |
| CCOC(=O)/C=C(/OCC)[C@@H]1C(C(=O)c2ccc(Cl)cc2)[C@@H]1/C(=C\C(=O)OCC)OCC (some centres not stated) | inactive: 53.7 µM |
| CCOP(=O)(OCC)C1CC(n2cc(C)c(=O)[nH]c2=O)OC1CO (configuration not stated) | inactive: > 100 µM |
| Cc1nc(-c2ccc([N+](=O)[O-])cc2)cn2c1nc1ccccc12 | inactive: > 100 µM |
| C/C(=C\C(=O)Nc1ccc2[nH]nnc2c1)Nc1ccc2[nH]nnc2c1 | inactive: > 100 µM |
| NC1CC(=O)c2c(I)sc(I)c21 (configuration not stated) | inactive: 23.1 µM |
| Cc1ccc(S(=O)(=O)n2ccn3c(=O)cc(C)nc23)cc1 | inactive: > 10 µM |
| COc1cc2cc(C(=O)N3CC(CCl)c4ccccc43)[nH]c2c(OC)c1OC (configuration not stated) | inactive: > 100 µM |
| C[C@]12CCC[C@H](OC=O)C1(O)C[C@H](C(=O)O)CC2 (some centres not stated) | inactive: > 100 µM |
| NCCn1ccc(NC(c2ccccc2)(c2ccccc2)c2ccccc2)nc1=O | inactive: 22.9 µM |
| O=C(c1cc(Cl)cc(Cl)c1)N(C(=O)N1CCN(c2ccccc2)CC1)c1ccccc1 | inactive: 67.9 µM |
| O=Nn1c2ccccc2c2ccccc21 | inactive: > 100 µM |
| O=S(=O)(c1ccccc1)C1(C2(S(=O)(=O)c3ccccc3)CCN=N2)CCN=N1 (configuration not stated) | inactive: > 100 µM |
| Cc1cc(=O)[nH]c(-n2[nH]c(C)c(CCO)c2=O)n1 | inactive: > 100 µM |
| COC(=O)c1cc2cc(OC)c(OC)cc2cc(C(=O)OC)c1=O | inactive: > 100 µM |
| O=[N+]([O-])c1cc(-c2nnc(S)[nH]2)ccc1O | inactive: > 100 µM |
| CC#C[I+]c1ccccc1 | inactive: 54.7 µM |
| O=P(Nc1ccccc1)(Oc1ccccc1)N1CCN(c2ccccc2)CC1 (configuration not stated) | inactive: 33.6 µM |
| COC(=O)C(=O)C1(CCC(C)=O)c2ccccc2-c2c(C)ccc(C)c21 (configuration not stated) | inactive: 68.1 µM |
| C=CC/C=C/C/C=C/CCCCCCCc1cccc(O)c1C(=O)O | inactive: > 100 µM |
| O=P(O)(NCCCl)NCCCl [PALIFOSFAMIDE] | inactive: > 10 µM |
| CC(C)CCC[C@@H](C)[C@H]1CC[C@H]2[C@@H]3CC=C4C[C@@H](OC(=O)c5cccc6c(=O)c7ccccc7[nH]c56)CC[C@]4(C)[C@H]3CC[C@]12C | inactive: > 75 µM |
| OCC1OC(n2ccc3cnccc32)CC1O (configuration not stated) | inactive: > 100 µM |
| Cc1cc(C)n(C(C)(C(=O)Cc2ccccc2)n2nc(C)cc2C)n1 | inactive: > 100 µM |

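Five compound concentrations were applied to cells in 96-well plates for 48 hours; endpoints were derived by simple linear interpolation of the resulting dose-response curve. Here, GI50 denotes the concentration required for 50% inhibition of growth.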 Activity calls are given as the source filed them. Rule as the data show it: active = GI50 up to about 1.1 µM and inactive = higher. Peptide text beside a SMILES is read from it.
